Results on 45 sequences are retold here after the supplement of paper PMC11417369.

± gives the standard deviation of the averaged measurements. Some of the results follow.

The assay relates to PfAP2-EXP AP2 domain (GST-tagged). The assay is described as follows: gcPBM binding intensity (ln(normalized median fluorescence intensity)); higher = stronger DNA binding. In short, it runs like this: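 For binding intensity, the highest Masliner-normalised natural-log median intensity across replicate spots of either probe orientation was taken. Protein bound to the array was stained with Alexa488 anti-GST antibody and scanned at 488 nm. The protein, GST-tagged P. falciparum DNA-binding domains from E. coli at about 25 μg on average, had been applied for 1 h to an Agilent 4 × 180k array of primer-extended double-stranded 36-bp intergenic genomic probes and negative controls.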
As for “ATATATCTATATAGAAATGTATATATATATATGTGT [TGCATGCA_negctrl_site349]”, the “gcPBM binding intensity (ln)” value turned out to be 8.46 ± 0.3. Under “TAAAATCAATGTTCTTGTACTTAAAATGTTTGTTCT [XGTACX_site5490]” stands 8.36 ± 0.39; under “AAAATTAAATTATTTACACACAATATTAAAATATTT [CACACA_site3244]”, 8.11 ± 0.45; under “AGTATAAAATTTGGTTGTACATTTTTAAAAAAATTA [XGTACX_site7519]”, 8.38 ± 0.35. Take “AAATAAATTTGACCAGTGCAATAACTTTGTATACCT [GTGCAC_site9446]”: the “gcPBM binding intensity (ln)” value came out at 8.67 ± 0.085. “TATAATATAAAAAAAAGTACACGAATTTTTTTTCAG [XGTACX_site6105]”: the “gcPBM binding intensity (ln)” value amounted to 8.38 ± 0.4. To “ATCCAAAAGAAAAATAGTACAGATATGAACAATATG [XGTACX_site6944]” belongs 8.76 ± 0.42. Under “ACAATATATTTTTGAGCATGCGCAAAAGAGAATGCA [TGCATGCA_site566]” stands 9.24 ± 0.49; under TCAAAAATTTATATAGTGCAATATATATATAATGTA, 8.31 ± 0.42; under “TGTGGCCCTGCGAGGTGGTCATCATGAATACGAAAA [XGTACX_site1526]”, 8.55 ± 0.34. To “TGAATTAACAAATAGACACACATATATATATATATA [CACACA_site3195]” belongs 10 ± 0.4; to TTAAAAAATATATGCGTGCACTAATATTTCATATGC, 9.02 ± 0.48. As to “ACCATTTGTACTTACGCACACATAAAATATATATAT [CACACA_site1545]”, the “gcPBM binding intensity (ln)” value was 9.2 ± 0.071. To “TACTATTTTTATAATACACACATATATTTGTGATAT [CACACA_site1775]” belongs 8.52 ± 0.38. “TCATACATTTTCCTTGCACACATTTATAATTAATGT [CACACA_site614]”: the “gcPBM binding intensity (ln)” value turned out to be 8.97 ± 0.4.

As for “TAATTTATTGTACGTGCATGCTATTTTTTATTTTTA [TGCATGCA_site1059]”, the “gcPBM binding intensity (ln)” value worked out at 9.46 ± 0.34. For the sequence “TTGTAATATATAAAAGTGCATATATGGTTCCATATA [GTGCAC_site9544]”, the “gcPBM binding intensity (ln)” value is 8.59 ± 0.35. To “AACAAAAAAACAAACACACACACACCCATATATATA [CACACA_site3652]” belongs 8.78 ± 0.26. To “ATATGTGAATAAAAATGTACGTGTTCTTTTTTTTTT [XGTACX_site320]” belongs 8.43 ± 0.47. In the case of “ACTATAAATATATACACATGCGCACACACAAGTGGG [TGCATGCA_site432]”, the “gcPBM binding intensity (ln)” value is 8.77 ± 0.39.

Regarding “TACCTATAAAAGTACACACACACACGGATATAAATA [CACACA_site6569]”, the “gcPBM binding intensity (ln)” value came to 8.9 ± 0.59. Under “ATTGATCTTTATTGTTGTACATTAAACGTTAATTTT [XGTACX_site1788]” stands 8.77 ± 0.49; under “TAACAAAATGTAAATAAACACACATATATATATATA [CACACA_site8352]”, 10 ± 0.4; under “TATTATATAATTTTAACACACAAGAATATAAACTTT [CACACA_site1363]”, 8.31 ± 0.38.

For the sequence “AAAAAGAAAAAACTTACACACATATATACCCCCATG [CACACA_site4463]”, the “gcPBM binding intensity (ln)” value worked out at 9.71 ± 0.38.

As to “TAATTTAAATGATGTAGTACATATAAATATATCTAA [XGTACX_site262]”, the “gcPBM binding intensity (ln)” value was 8.07 ± 0.11. “TGAAGGAATACAGCTCGTACATGTGTAAAGAGATAA [XGTACX_site500]”: the “gcPBM binding intensity (ln)” value amounted to 8.92 ± 0.47. To “AACATTCTATGTTGCACACAAAGAGAAAAATTTATT [CACACA_site3995]” belongs 8.59 ± 0.58.

As to “AATAAAAAAATTAAAATTAAAAAATTAAAACTTAAA [CACACA_negctrl_site987]”, the “gcPBM binding intensity (ln)” value came out at 7.88 ± 0.41.

On to “ATGGAAATTTTATCATGTACATATACCGTTGAATAA [XGTACX_site5420]”, for which the “gcPBM binding intensity (ln)” value came out at 8.6 ± 0.35.

For the sequence “ACATATAAGTTATATACACACAATAATATGTAAATA [CACACA_site6766]”, the “gcPBM binding intensity (ln)” value stood at 8.35 ± 0.49. To “ATATTTTTTATAAAATGTACTTATTATTAGAATATA [XGTACX_site2460]” belongs 8.28 ± 0.23.

Regarding “TACAAAATATGGTAATAAAGTAGTTACATGAATTGG [XGTACX_negctrl_site522]”, the “gcPBM binding intensity (ln)” value turned out to be 8.55 ± 0.43.

“AAATAGTCTTCTCTTGCATGTAACAAATATATATAT [TGCATGCA_site428]”: the “gcPBM binding intensity (ln)” value was found to be 9.38 ± 0.099. Under “TAGTAAGAATTACTGTGTACTAAAATATTAAAAAGT [XGTACX_site2578]” stands 8.69 ± 0.26; under “AATAAAAACAAACAAAAAAACAAATAAATAAATAAA [CACACA_negctrl_site483]”, 8.64 ± 0.39; under “GTTATAGAAGCATTCACACACACACGGACATACACA [CACACA_site6801]”, 8.86 ± 0.43. Take “TTTTTTTATAAAAATGAACACACACCGATATATATA [CACACA_site9161]”: the “gcPBM binding intensity (ln)” value was determined as 8.98 ± 0.34. Regarding “TATTATAATATATTTGTGCACATAATACCTCCGCTA [GTGCAC_site9570]”, the “gcPBM binding intensity (ln)” value turned out to be 9.03 ± 0.11. Under AATATATACATATGTATGCACTTTTTAATTATTTTT stands 8.62 ± 0.27.

As for “ATATATATATAAATATAAATATATATATATATATAT [CACACA_negctrl_site1685]”, the “gcPBM binding intensity (ln)” value worked out at 10 ± 0.41. On to ATAAATTATATTCAAGTGCATGTAACTTATTATTAT, for which the “gcPBM binding intensity (ln)” value was 8.83 ± 0.11.

Turning to “AATAATTAAATATATTTATAACAGGAAAATATTTAT [XGTACX_negctrl_site175]”, the “gcPBM binding intensity (ln)” value was 8.49 ± 0.41. Under “GTTATAGAAGCATTCACACACACACCGACATACACA [CACACA_site4914]” stands 8.69 ± 0.49.

For the sequence “ACAAAGAACTATAATACACACAAGAATATATTGGAT [CACACA_site7771]”, the “gcPBM binding intensity (ln)” value came out at 8.78 ± 0.45.
